The target of experiment [1] is T1, human IL-18RAP (full length, on transfected HEK293 cells) (human, UniProt O95256 20-599).
T1 construct: whole, on cells; also called IL-18RAP on the cell membrane surface
T1 sequence (looked up): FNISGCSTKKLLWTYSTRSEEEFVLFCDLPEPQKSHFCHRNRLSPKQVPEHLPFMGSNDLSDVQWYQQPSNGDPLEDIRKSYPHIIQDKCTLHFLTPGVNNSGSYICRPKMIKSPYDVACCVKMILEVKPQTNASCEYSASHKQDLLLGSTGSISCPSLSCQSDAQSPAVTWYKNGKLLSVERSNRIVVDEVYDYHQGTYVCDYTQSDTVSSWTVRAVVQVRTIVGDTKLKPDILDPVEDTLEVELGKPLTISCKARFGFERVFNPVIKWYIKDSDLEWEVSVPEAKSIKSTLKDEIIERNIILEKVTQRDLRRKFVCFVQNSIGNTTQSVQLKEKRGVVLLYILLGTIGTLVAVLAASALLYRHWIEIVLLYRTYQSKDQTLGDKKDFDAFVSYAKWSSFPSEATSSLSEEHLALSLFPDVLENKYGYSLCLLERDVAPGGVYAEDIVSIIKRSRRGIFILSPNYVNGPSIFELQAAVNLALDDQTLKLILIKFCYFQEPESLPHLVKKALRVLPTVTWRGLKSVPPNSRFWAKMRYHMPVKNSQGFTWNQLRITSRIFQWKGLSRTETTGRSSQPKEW
Nature of the experiment: flow cytometry, transfected HEK293. For orientation: In flow cytometry, cells or beads pass a laser one at a time.

Experiment [2] concerns the target T2, human IL-18R1 and IL-18RAP on IL-18 Reporter HEK 293 Cells (human, UniProt Q13478 19-541; O95256 20-599).
T2 sequence (looked up) 1: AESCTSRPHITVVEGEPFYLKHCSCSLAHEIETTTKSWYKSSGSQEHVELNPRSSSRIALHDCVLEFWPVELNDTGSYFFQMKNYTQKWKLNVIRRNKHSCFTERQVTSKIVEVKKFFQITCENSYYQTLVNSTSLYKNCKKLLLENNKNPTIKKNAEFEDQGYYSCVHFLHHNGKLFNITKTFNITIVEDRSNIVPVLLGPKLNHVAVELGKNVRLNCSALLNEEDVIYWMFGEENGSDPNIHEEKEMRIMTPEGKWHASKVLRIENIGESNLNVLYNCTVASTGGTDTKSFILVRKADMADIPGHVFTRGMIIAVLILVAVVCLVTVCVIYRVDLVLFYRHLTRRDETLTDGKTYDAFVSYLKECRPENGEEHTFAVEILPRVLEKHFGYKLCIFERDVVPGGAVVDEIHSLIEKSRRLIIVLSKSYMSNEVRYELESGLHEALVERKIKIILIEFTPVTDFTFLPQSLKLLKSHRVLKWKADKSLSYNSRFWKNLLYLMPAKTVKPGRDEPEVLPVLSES
T2 sequence (looked up) 2: T1 sequence (looked up)
Put plainly: cell-based or functional assay.

Experiment [3] has as its target T3, IL-18RAP ECD-mFc (human).
T3 chain: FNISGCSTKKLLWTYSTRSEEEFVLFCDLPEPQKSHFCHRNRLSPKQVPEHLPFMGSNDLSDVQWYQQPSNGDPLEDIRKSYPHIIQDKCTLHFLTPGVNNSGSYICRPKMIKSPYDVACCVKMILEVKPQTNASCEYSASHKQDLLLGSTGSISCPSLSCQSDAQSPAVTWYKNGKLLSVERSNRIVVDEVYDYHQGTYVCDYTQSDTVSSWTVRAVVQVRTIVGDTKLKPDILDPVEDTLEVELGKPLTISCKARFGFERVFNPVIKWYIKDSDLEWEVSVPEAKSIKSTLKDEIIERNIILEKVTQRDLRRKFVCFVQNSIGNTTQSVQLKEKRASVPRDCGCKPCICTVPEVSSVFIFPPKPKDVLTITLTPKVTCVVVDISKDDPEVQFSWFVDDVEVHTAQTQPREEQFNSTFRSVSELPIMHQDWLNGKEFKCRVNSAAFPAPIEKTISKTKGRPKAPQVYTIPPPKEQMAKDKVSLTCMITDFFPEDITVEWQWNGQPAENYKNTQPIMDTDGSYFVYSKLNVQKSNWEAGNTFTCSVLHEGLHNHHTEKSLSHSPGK
Put plainly: sandwich ELISA, IL-18R1 ECD-His coated, IL-18RAP ECD-mFc detection. In general terms: ELISA stands for enzyme-linked immunosorbent assay.

Experiment [4] addresses T2, human IL-18R1 and IL-18RAP on IL-18 …. Put plainly: cell-based or functional assay. This is another data set of the same source.
Experiment [5] addresses T4, human IL-18R1 ECD-His (human, UniProt Q13478 22-329).
T4 sequence: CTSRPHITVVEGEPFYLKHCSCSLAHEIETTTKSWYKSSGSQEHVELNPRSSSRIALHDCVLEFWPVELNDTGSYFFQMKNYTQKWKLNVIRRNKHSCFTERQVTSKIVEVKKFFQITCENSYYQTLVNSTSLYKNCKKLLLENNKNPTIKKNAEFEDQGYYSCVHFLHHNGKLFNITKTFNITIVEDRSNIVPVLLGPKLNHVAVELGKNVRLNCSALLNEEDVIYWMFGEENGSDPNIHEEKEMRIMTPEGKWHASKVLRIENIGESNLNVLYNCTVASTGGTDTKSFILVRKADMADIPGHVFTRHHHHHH
Put plainly: sandwich ELISA, IL-18R1 ECD-His coated, IL-18RAP ECD-mFc detection.

Read-outs that look alike come from different tables or passages of the source.

B1: hzWio-02-05-hFc (bispecific antibody)
chain: EVQLVESGGGLVQPGGSLRLSCAASGNLYRDPCMGWFRQAPGKDREGVAAMNTGADSTFYARSVKGRFTISRDNAKNTLYLQMNSLRAEDTAVYYCAASRYCTERTYTWRYDYDYWGQGTLVTVSSGGGGSEVQLVESGGGLVQPGGSLRLSCAASGFTYIPAYMGWFRQAPGKERERVASISSTEGSTTYADSVKGRFTISQDNSKNTLYLQMNSLRPEDTAVYYCAAYQFGAFRVWGQGTLVTVSS[human IgG1 Fc with changes not shown]
notes: also called hzWio-02-05 (Fc form)
As usually defined, the EC50 is the concentration needed to bring the measured effect to its halfway point. Low readings indicate a more potent agent, high ones a less potent agent. B1: the binding result in experiment [1] is on record as “binds”. In experiment [2], this molecule came in with a concentration giving a half-maximal response (EC50) of 1.09 ng/mL and a Top630nm of 1.3.

B2: hzWio-02-23-L5-hFc (bispecific antibody)
chain: EVQLVESGGGLVQPGGSLRLSCAASGFTVHDMGWYRQAPGKECELVSTISSDASTYYADSVKGRFTISRDNAKNTLYLQMNSLRAEDTAVYYCAADSFTGLQLAECKADFGYWGQGTLVTVSSGGGGSGEVQLVESGGGLVQPGGSLRLSCAASGFTYIPAYMGWFRQAPGKERERVASISSTEGSTTYADSVKGRFTISQDNSKNTLYLQMNSLRPEDTAVYYCAAYQFGAFRVWGQGTLVTVSS[human IgG1 Fc with changes not shown]
notes: also called hzWA23
On to B2, for which the binding result in experiment [3] is recorded as “binds”. In experiment [4], this molecule showed a concentration for a half-maximal effect (EC50) of 1.89 ng/mL and a Top630nm of 1.43.

B3: hzWA23Hm38 (bispecific antibody)
chain: EVQLVESGGGLVQPGGSLRLSCAASGFTVHDMGWYRQAPGKECELVSTISSHASTYYADSVKGRFTISRDNAKNTLYLQMNSLRAEDTAVYYCAADSFTGLQLAHCKADFGYWGQGTLVTVSSGGGGSGEVQLVESGGGLVQPGGSLRLSCAASGFTYIPAYMGWFRQAPGKERERVASISSTEGSTTYADSVKGRFTISQDNSKNTLYLQMNSLRPEDTAVYYCAAYQFGAFRVWGQGTLVTVSS[human IgG1 Fc with changes not shown]
In the case of B3, the binding result in experiment [5] and in experiment [3] was “binds” in each case.

B4: hzWio-02-09-hFc (bispecific antibody)
chain: EVQLVESGGGLVQPGGSLRLSCAASGSTFDEYDMGWYRQAPGGKCELVSTISTIDASTYYADSVKGRFTISRDNSKNTLYLQMNSLRAEDTAVYYCEADDRGTWDRGGCWGQGTLVTVSSGGGGSEVQLVESGGGLVQPGGSLRLSCAASGFTYIPAYMGWFRQAPGKERERVASIKTDASTTYADSVEGRFTISQDNAKNTLYLQMNSLRPEDTAVYYCAAYQFGAFRVWGQGTLVTVSS[human IgG1 Fc with changes not shown]
notes: also called hzWio-02-09 (Fc form)
For B4, in experiment [1], the binding result is “binds”. In experiment [2], the EC50 is 2.18 ng/mL and the Top630nm came out at 2.1.

B5: hzWio-02-23-hFc (bispecific antibody)
chain: EVQLVESGGGLVQPGGSLRLSCAASGFTVHDMGWYRQAPGKECELVSTISSDASTYYADSVKGRFTISRDNAKNTLYLQMNSLRAEDTAVYYCAADSFTGLQLAECKADFGYWGQGTLVTVSSGGGGSEVQLVESGGGLVQPGGSLRLSCAASGFTYIPAYMGWFRQAPGKERERVASISSTEGSTTYADSVKGRFTISQDNSKNTLYLQMNSLRPEDTAVYYCAAYQFGAFRVWGQGTLVTVSS[human IgG1 Fc with changes not shown]
notes: also called hzWio-02-23 (Fc form); hzWio-02-23-L0-hFc
With B5, the EC50 in experiment [4] stood at 1.96 ng/mL; in experiment [2], 2.2 ng/mL. The Top630nm is 1.37 in experiment [4] and 1.55 in experiment [2]. In addition, in experiment [1], the binding result is reported as “binds”.

B6: hzWio-02-11-hFc (bispecific antibody)
chain: EVQLVESGGGLVQPGGSLRLSCAASGSTFDEYDMGWYRQAPGGKCELVSTISTIDASTYYADSVKGRFTISRDNSKNTLYLQMNSLRAEDTAVYYCEADDRGTWDRGGCWGQGTLVTVSSGGGGSEVQLVESGGGLVQPGGSLRLSCAASGFTYIPAYMGWFRQAPGKERERVASISSTEGSTTYADSVKGRFTISQDNSKNTLYLQMNSLRPEDTAVYYCAAYQFGAFRVWGQGTLVTVSS[human IgG1 Fc with changes not shown]
notes: also called hzWio-02-11 (Fc form)
Consider B6, for which, in experiment [1], the binding result is “binds”. In experiment [2], the EC50 was found to be 0.175 ng/mL and the Top630nm is 1.55.

These data come from EP4711384A1 (WIO Bioscience Co., Ltd., dated 2026).
